The values below come from US20020123504A1, “Lactose-free, non-hygroscopic and anhydrous pharmaceutical compositions of descarboethoxyloratadine” (SEPRACOR INC., priority 1997, published 2002).

Series [1] in a line: Reactivity with lactose under accelerated storage (60° C. at 75% RH).
For series [2], the system named is allergic bronchospasm. To be noted: milligram by milligram basis; cited from earlier work.
Series [3] in a line: Excipient compatibility of DCL by differential scanning calorimetry (DSC).
Setting [4] is: 4 weeks 60° C./75% RH, 80% lactose.
Where [5] appears, read: 4 weeks 60° C./75% RH, 80% lactose/5% H2O.

“And” between values parts separate entries of the source, which are not always exact repeats. Equal entries are not always repeated.

On to `CCOC(=O)N1CCC(=C2c3ccc(Cl)cc3CCc3cccnc32)CC1` [Loratadine, loratadine], for which the “% Initial” value in series [1] (setting [4]) was 100.33%; in series [1] (setting [5]) it was 100.37%; in series [1] (4 weeks 60° C./75% RH, neat), 99.35%. For the same compound, the Reactivity with lactose result in series [1] (similar conditions (60° C./75% RH), including samples with 5% water) is “negligible”. Also, the “Potency relative to terfenadine in the inhibition of allergic bronchospasm” value in series [2] is “four times more potent”.

For the compound `Clc1ccc2c(c1)CCc1cccnc1C2=C1CCNCC1` [DCL, 8-chloro-6,11-dihydro-11-(4-piperidylidene)-5H-benzo[5,6]cyclohepta[1,2-b]pyridine], the “% Initial” value is 90.35% in series [1] (1 week 60° C./75% RH, 80% lactose/5% H2O, particle sizes reduced with mortar and pestle); 49.07% in series [1] (2 weeks 60° C./75% RH, 80% lactose/5% H2O, particle sizes reduced with mortar and pestle); 46.95% and 49.52% in series [1] (4 weeks 60° C./75% RH, 80% high surface area Fast Flo lactose); 68.58% in series [1] (setting [4]); 49.57% in series [1] (setting [5]); 48.80% in series [1] (4 weeks 60° C./75% RH, 80% lactose/5% H2O, particle sizes reduced with mortar and pestle). In addition, in series [1] (4 weeks 60° C./75% RH, neat), the “% Initial” value is on record as 99.70%. For the same compound, the “DSC behavior, drug/excipient interaction” value in series [3] (DCL dry blended with AVICEL microcrystalline cellulose, 80% excipient to 20% drug) is “no interaction”; in series [3] (DCL dry blended with STARCH 1500, 80% excipient to 20% drug), “does not appear to be a DCL/STARCH 1500® interaction”; in series [3] (DCL dry blended with lactose (α-lactose monohydrate), 80% excipient to 20% drug), “active drug/excipient interaction”.
